Assay results reported in the supplement of paper PMC9151546.
Single values are uncertain, as repeats are few or missing.

What was measured:
[1] = test system: CHO-K1; assay: hypodiploid nuclei frequency (% of nucleated events); higher = more hypodiploid events (aneugenic)
Protocol: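 Flow-cytometric in vitro micronucleus assay (Litron MicroFlow) in CHO-K1 cells in 96-well plates, 19 concentrations (4.5-200 µM, n=1 per concentration). Without S9, cells were exposed for 24 h and sampled at 48 h. With Aroclor 1254-induced rat liver S9, cells were exposed for 3-4 h and sampled at 27-28 h. Read-outs are %MN and %hypodiploid nuclei relative to nucleated events, and relative survival as the nuclei-to-bead ratio versus the 1% DMSO vehicle control (x100).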

[2] = test system: CHO-K1; assay: micronucleus frequency (% of nucleated events); higher = more micronuclei (genotoxic)
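Throughout, for hypodiploid nuclei frequency (% of nucleated events): hypodiploid nuclei gated on a flow cytometer with 488 nm excitation after SYTOX Green staining, cultures at 37 °C, positive controls vinblastine without S9 and cyclophosphamide with S9.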
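Throughout, for micronucleus frequency (% of nucleated events): cells lysed with nuclei stained by SYTOX Green, then micronucleus-gated events counted against nucleated events by flow cytometry with 488 nm excitation.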

Cc1ccc(O)cc1C [3,4-Dimethylphenol]
hypodiploid nuclei frequency [%], [1]
Settings	S9 metabolic activation: with S9, exposure time: 3-4 hours	S9 metabolic activation: without S9, exposure time: 24 hours
concentration: 4.53 (µM)	0.1	0.66
concentration: 5.66 (µM)	0.16	0.48
concentration: 7.07 (µM)	0.28	0.52
concentration: 8.84 (µM)	0.26	0.48
concentration: 11.1 (µM)	0.34	0.5
concentration: 13.8 (µM)	0.22	0.78
concentration: 17.3 (µM)	0.24	0.44
concentration: 21.6 (µM)	0.26	0.74
concentration: 27 (µM)	0.44	0.7
concentration: 33.7 (µM)	0.28	0.76
concentration: 42.2 (µM)	0.34	0.76
concentration: 52.7 (µM)	0.28	0.58
concentration: 65.9 (µM)	0.14	0.72
concentration: 82.3 (µM)	0.2	0.9
concentration: 103 (µM)	0.16	1.04
concentration: 129 (µM)	0.34	1.3
concentration: 161 (µM)	0.34	1.68
concentration: 201 (µM)	0.34	2.02

CC(=O)Nc1ccc(O)cc1 [Acetaminophen]
Settings	hypodiploid nuclei frequency, [1] [%]	micronucleus frequency, [2] [%]
concentration: 4.5 (µM), S9 metabolic activation: with S9, exposure time: 3-4 hours	0.28	2.04
concentration: 4.5 (µM), S9 metabolic activation: without S9, exposure time: 24 hours	0.42	1.38
concentration: 5.63 (µM), S9 metabolic activation: with S9, exposure time: 3-4 hours	0.22	1.42
concentration: 5.63 (µM), S9 metabolic activation: without S9, exposure time: 24 hours	0.44	1.68
concentration: 7.04 (µM), S9 metabolic activation: with S9, exposure time: 3-4 hours	0.34	2.64
concentration: 7.04 (µM), S9 metabolic activation: without S9, exposure time: 24 hours	0.42	1.64
concentration: 8.8 (µM), S9 metabolic activation: with S9, exposure time: 3-4 hours	0.12	2.24
concentration: 8.8 (µM), S9 metabolic activation: without S9, exposure time: 24 hours	0.6	1.46
concentration: 11 (µM), S9 metabolic activation: with S9, exposure time: 3-4 hours	0.26	2.08
concentration: 11 (µM), S9 metabolic activation: without S9, exposure time: 24 hours	0.56	1.78
concentration: 13.7 (µM), S9 metabolic activation: with S9, exposure time: 3-4 hours	0.3	2.56
concentration: 13.7 (µM), S9 metabolic activation: without S9, exposure time: 24 hours	0.72	2.28
concentration: 17.2 (µM), S9 metabolic activation: with S9, exposure time: 3-4 hours	0.32	2.44
concentration: 17.2 (µM), S9 metabolic activation: without S9, exposure time: 24 hours	0.76	2.4
concentration: 21.5 (µM), S9 metabolic activation: with S9, exposure time: 3-4 hours	0.3	1.12
concentration: 21.5 (µM), S9 metabolic activation: without S9, exposure time: 24 hours	0.68	1.84
concentration: 26.8 (µM), S9 metabolic activation: with S9, exposure time: 3-4 hours	0.34	2.02
concentration: 26.8 (µM), S9 metabolic activation: without S9, exposure time: 24 hours	0.48	1.8
concentration: 33.6 (µM), S9 metabolic activation: with S9, exposure time: 3-4 hours	0.22	1.78
concentration: 33.6 (µM), S9 metabolic activation: without S9, exposure time: 24 hours	0.76	2.3
concentration: 41.9 (µM), S9 metabolic activation: with S9, exposure time: 3-4 hours	0.42	1.82
concentration: 41.9 (µM), S9 metabolic activation: without S9, exposure time: 24 hours	0.66	1.6
concentration: 52.4 (µM), S9 metabolic activation: with S9, exposure time: 3-4 hours	0.16	1.46
concentration: 52.4 (µM), S9 metabolic activation: without S9, exposure time: 24 hours	0.88	2.02
concentration: 65.5 (µM), S9 metabolic activation: with S9, exposure time: 3-4 hours	0.3	1.14
concentration: 65.5 (µM), S9 metabolic activation: without S9, exposure time: 24 hours	0.68	1.9
concentration: 81.9 (µM), S9 metabolic activation: with S9, exposure time: 3-4 hours	0.26	1.18
concentration: 81.9 (µM), S9 metabolic activation: without S9, exposure time: 24 hours	0.94	1.9
concentration: 102 (µM), S9 metabolic activation: with S9, exposure time: 3-4 hours	0.22	1.8
concentration: 102 (µM), S9 metabolic activation: without S9, exposure time: 24 hours	0.82	2.5
concentration: 128 (µM), S9 metabolic activation: with S9, exposure time: 3-4 hours	0.32	1.58
concentration: 128 (µM), S9 metabolic activation: without S9, exposure time: 24 hours	1	2.1
concentration: 160 (µM), S9 metabolic activation: with S9, exposure time: 3-4 hours	0.26	1.7
concentration: 160 (µM), S9 metabolic activation: without S9, exposure time: 24 hours	1.12	2.86
concentration: 200 (µM), S9 metabolic activation: with S9, exposure time: 3-4 hours	0.24	1.52
concentration: 200 (µM), S9 metabolic activation: without S9, exposure time: 24 hours	1.2	3.92

O=C(c1ccccc1)c1ccccc1 [Benzophenone]
hypodiploid nuclei frequency [%], [1]
Settings	S9 metabolic activation: with S9, exposure time: 3-4 hours	S9 metabolic activation: without S9, exposure time: 24 hours
concentration: 4.5 (µM)	0.28	0.34
concentration: 5.63 (µM)	0.18	0.48
concentration: 7.04 (µM)	0.2	0.54
concentration: 8.8 (µM)	0.12	0.84
concentration: 11 (µM)	0.24	0.74
concentration: 13.7 (µM)	0.18	0.66
concentration: 17.2 (µM)	0.22	0.84
concentration: 21.5 (µM)	0.18	0.6
concentration: 26.8 (µM)	0.26	0.84
concentration: 33.6 (µM)	0.2	0.76
concentration: 41.9 (µM)	0.16	1.18
concentration: 52.4 (µM)	0.1	1.2
concentration: 65.5 (µM)	0.22	1.1
concentration: 81.9 (µM)	0.12	1.78
concentration: 102 (µM)	0.16	2.7
concentration: 128 (µM)	0.32	2.48
concentration: 160 (µM)	0.3	4.5
concentration: 200 (µM)	0.36	5.64
